Molecular target: human neuronal calcium channel α1D, α2 and β1 subunits (Homo sapiens, UniProt Q01668, S1346F/Y1433H)
Type: cell-based
Parameters: expressed in transfected cells; host or cells: Xenopus laevis oöcytes injected with in vitro transcripts

With COC(=O)C1=C(C)NC(C)=C([N+](=O)[O-])C1c1ccccc1C(F)(F)F (stereo not drawn) [Bay K 8644] the “magnitude of the inward barium currents” value was “increased the magnitude of the currents”, the “shift in current activation” value was “hyperpolarizing shift” and the “tail currents upon repolarization” value was “prolonged the tail currents”.
